Patent US20090176209A1 (DOMANTIS, published 2009)

Target: T1, BSA (Sigma), biotinylated (UniProt P02769)
T1 construct: Negative control surface
Assay: protein-DNA complex captured on biotinylated protein in streptavidin-coated PCR tubes; co-captured DNA detected by PCR and gel

T1 sequence (P02769 25-607 limits assumed): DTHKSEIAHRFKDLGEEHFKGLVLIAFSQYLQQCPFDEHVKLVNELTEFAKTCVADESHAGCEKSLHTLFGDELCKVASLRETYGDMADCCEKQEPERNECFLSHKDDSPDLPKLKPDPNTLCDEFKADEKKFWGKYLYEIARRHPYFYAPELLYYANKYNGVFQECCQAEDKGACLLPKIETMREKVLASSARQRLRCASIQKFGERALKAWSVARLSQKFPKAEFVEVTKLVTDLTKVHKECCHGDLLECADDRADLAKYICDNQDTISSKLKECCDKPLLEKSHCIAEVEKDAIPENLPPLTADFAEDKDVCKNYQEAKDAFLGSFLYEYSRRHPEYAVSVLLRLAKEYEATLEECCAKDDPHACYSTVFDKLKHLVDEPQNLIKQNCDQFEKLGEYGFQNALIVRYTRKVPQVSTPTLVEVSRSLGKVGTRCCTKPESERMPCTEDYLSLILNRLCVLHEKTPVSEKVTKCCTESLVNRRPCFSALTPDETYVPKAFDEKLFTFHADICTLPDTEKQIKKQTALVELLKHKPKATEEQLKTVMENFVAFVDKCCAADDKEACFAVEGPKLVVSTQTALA

B1: scFv(31IJ1)-scArc fusion protein (pIE7a^nA-scFv(31IJ1), n=1-4) (scFv)
chain: MAEVQLLESGGGLVQPGGSLRLSCAASGFTFSSYAMSWVRQAPGKGLEWVSGINHAGVRTWYADSVKGRFTISRDNSKNTLYLQMNSLRAEDTAVYYCAKRKVGFDYWGQGTLVTVSSGGGGSGGGGSGGGGST[about 100 residues left out here]KEAAAKEAAAKEAAAKEAAAKEAAAKEAAAGGGSGGGHMKGMSKMPQFNLRWPREVLDLVRKVAEENGRSVNSEIYQRVMESFKKEGRIGAGGGSGGGSGGGSGGGHMKGMSKMPQFNLRWPREVLDLVRKVAEENGRSVNSEIYQRVMESFKKEGRIGAGGGSGGGSYPYDVPDYA
notes: In vitro translated in the presence of 3F10 αHA mAb, assayed as protein-DNA complex with 1-4 Arc operators; also called scFv-scArc; scFv-scArc fusion protein
  binding result: no binding
